Test results published in PMC4336329 (PLoS ONE, 2015).
Screen size: about 310,000 compounds; about 2,200 (0.71%) showed an effect of 50% or more. The effect is printed as a negative number. Some of the results follow.

Each compound was assayed against human ether-à-go-go-related gene (hERG) potassium channel (human, UniProt Q12809) (assay: primary screen, population patch clamp on CHO cells stably expressing hERG).
Chain of human ether-à-go-go-related gene (hERG) potassium channel (Q12809 whole entry, looked up): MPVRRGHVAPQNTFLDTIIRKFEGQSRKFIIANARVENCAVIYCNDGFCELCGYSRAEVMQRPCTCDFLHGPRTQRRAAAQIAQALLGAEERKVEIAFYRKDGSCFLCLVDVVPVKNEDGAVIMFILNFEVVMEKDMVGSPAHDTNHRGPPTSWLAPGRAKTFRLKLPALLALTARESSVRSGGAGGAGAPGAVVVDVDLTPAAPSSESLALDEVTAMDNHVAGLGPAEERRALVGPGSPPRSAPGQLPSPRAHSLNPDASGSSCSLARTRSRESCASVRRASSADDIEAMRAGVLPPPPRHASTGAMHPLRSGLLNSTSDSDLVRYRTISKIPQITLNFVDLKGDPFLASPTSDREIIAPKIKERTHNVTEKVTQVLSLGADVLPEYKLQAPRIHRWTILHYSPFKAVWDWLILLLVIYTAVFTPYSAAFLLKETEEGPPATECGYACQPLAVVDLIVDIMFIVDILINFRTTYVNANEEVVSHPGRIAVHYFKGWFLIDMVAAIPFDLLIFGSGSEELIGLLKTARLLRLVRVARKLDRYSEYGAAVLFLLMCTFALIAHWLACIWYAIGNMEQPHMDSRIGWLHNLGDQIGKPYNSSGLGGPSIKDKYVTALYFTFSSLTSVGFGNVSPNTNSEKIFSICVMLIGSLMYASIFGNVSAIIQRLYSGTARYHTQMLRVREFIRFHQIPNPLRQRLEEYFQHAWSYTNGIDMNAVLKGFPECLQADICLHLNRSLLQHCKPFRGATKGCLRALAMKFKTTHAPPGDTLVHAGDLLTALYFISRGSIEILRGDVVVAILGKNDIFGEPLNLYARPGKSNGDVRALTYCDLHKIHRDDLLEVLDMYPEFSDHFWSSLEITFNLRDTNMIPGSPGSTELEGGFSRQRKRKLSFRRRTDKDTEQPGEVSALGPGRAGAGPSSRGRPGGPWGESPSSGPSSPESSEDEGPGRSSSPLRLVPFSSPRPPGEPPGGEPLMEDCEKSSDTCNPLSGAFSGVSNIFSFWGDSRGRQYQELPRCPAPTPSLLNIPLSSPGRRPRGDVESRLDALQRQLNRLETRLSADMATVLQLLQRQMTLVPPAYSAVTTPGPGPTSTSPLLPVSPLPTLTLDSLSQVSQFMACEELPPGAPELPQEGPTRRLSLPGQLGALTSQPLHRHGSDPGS

| Compound | hERG current change (%, negative = inhibition) at 1uM |
| --- | --- |
| O=C(NN1CCCCC1)c1cnn2c(C(F)F)cc(-c3ccccc3)nc12 | 11.7% |
| Cc1cccc(CCNC(=O)CCNC(=O)Cn2ccc3ccccc3c2=O)c1 | 14.3% |
| COC(=O)c1ccc2ccccc2c1OC1OC(CO)C(O)C(O)C1NC(C)=O (centres unmarked) | 12.2% |
| CCCc1ccc(OCc2ccc(C(=O)N3CCN(c4ccccn4)CC3)o2)c(OC)c1 | -13.6% |
| CC(C)(C)n1nnnc1CN1CCN(C2CCCC2)CC1 | 3.93% |
| CCN(CC)S(=O)(=O)c1ccc(N/N=C/c2ccc(O)cc2O)nc1 | 5.71% |
| CC(C)(C)Nc1nc(SCC(=O)Nc2ccccc2)nc(N2CCOCC2)n1 | 14.7% |
| Cc1cccnc1NC(=S)Nc1ccc(Cl)c(Cl)c1 | 6.21% |
| COC(=O)c1cccc(NC(=O)c2ccc3c(c2)C(=O)N(CC2CCCO2)C3=O)c1 (centres unmarked) | -4.32% |
| CCc1ccc2[nH]c(=O)c(C(c3nnnn3Cc3ccccc3)N3CCOCC3)cc2c1 (centres unmarked) | 0.57% |
| COc1ccc([N+](=O)[O-])cc1NC(=O)c1cccnc1 | 6.33% |
| O=C(COC(=O)C1(c2ccc(F)cc2)CCCC1)NC1CC1 | 2.2% |
| Cc1ccccc1N(C(=O)c1ccccn1)C(C(=O)NCc1ccccc1)c1ccncc1 (centres unmarked) | 5.83% |
| O=C(N/C(=C/c1cccnc1)C(=O)N1CCOCC1)c1ccco1 | 9.9% |
| O=C(OCCc1cc2ccccc2c(=O)o1)c1ccccc1C(F)(F)F | 9.46% |
| Cn1cc(CN2CCC(n3nccc3NC(=O)c3ccccc3Cl)CC2)c2ccccc21 | -47.6% |
| O=C(N/N=C/c1ccco1)C(O)c1ccccc1 (centres unmarked) | 8.68% |
| S=C(NCCc1ccccc1)Nc1ccccc1N1CCOCC1 | 11.8% |
| Cc1c(C(=O)/C=C/N(C)C)nnn1-c1ccc(F)c(Cl)c1 | 0.307% |

| Compound | hERG current change (%, negative = inhibition) at 1uM |
| --- | --- |
| O=C(CN1CCCCC1)N/N=C/c1cccc(C(F)(F)F)c1 | -3.1% |
| CCN(C(=S)NCCOC)c1cccc2ccccc12 | 9.79% |
| Cn1c(NC(=O)COc2ccccc2)cc(=O)n(C)c1=O | 12.7% |
| Fc1cccc(/C=N/n2c(C3CCCCC3)n[nH]c2=S)c1 | 8.87% |
| Cc1ccc(CN(c2ccc(C(=O)Nc3ccc4c(c3)OCO4)cc2)S(C)(=O)=O)cc1 | 15% |
| CCc1nc2sc3c(O)cc(=O)[nH]c3c2cc1C | 11.3% |
| CC1(C)CC(=O)C/C(=N/Nc2nc3ccccc3s2)C1 | 14% |
| Cc1cc(C)c(NC(=O)CCn2nnc3ccccc32)c(C)c1 | 12.6% |
| CC1=C(C(=O)Nc2ccccc2)C(c2cccnc2)n2ncnc2N1 (centres unmarked) | 11.1% |
| Cc1ccc(NC(=O)CCSc2nnnn2-c2ccc3c(c2)OCO3)cc1C | 7.74% |
| COc1ccc(CCNC(=O)c2ccc(CN3CCC(Cc4ccccc4)CC3)cc2)cc1OC | -3.19% |
| COc1ccc(-c2ccnc(SCC(=O)N3CCN(c4ccccc4)CC3)n2)cc1 | 13.7% |
| O=C(NC(=S)Nc1ccc(F)cc1)c1ccc2c(c1)OCCO2 | 3.29% |
| COc1ccc(/C=C(\C#N)C(=O)OCCNC(=O)c2ccncc2)cc1 | 4.29% |
| O=C(CCN1C(=O)/C(=C/c2cccs2)SC1=S)NC1=NCCS1 | 12.8% |
| O=C(CCC1COc2ccccc2O1)Nc1ccccn1 (centres unmarked) | -1.02% |
| Cc1ccc(C(=O)NCCc2nnc3ccc(SCC(=O)N4CCCCC4)nn23)cc1 | 12.6% |
| COc1ccc(S(=O)(=O)N2CCCN(S(=O)(=O)c3ccc(OC)cc3C)CC2)c(C)c1 | 15% |
| O=C(c1cc(S(=O)(=O)N2CCOCC2)c(Cl)cc1Cl)N1CCCCC1CO (centres unmarked) | 12.2% |

| Compound | hERG current change (%, negative = inhibition) at 1uM |
| --- | --- |
| CCC1(CC)C(=O)N(C)C(=O)NC1=Nc1ccccc1 | 17.9% |
| CC(Oc1ccc(Cl)cc1Cl)C(=O)NNC(=O)c1cccnc1 (centres unmarked) | 4.46% |
| O=C(CN1CCN(S(=O)(=O)c2ccccc2)CC1)Nc1cccc(C(F)(F)F)c1 | -13.1% |
| COc1cc(C(=O)CSc2nnc(-c3ccc(O)cc3)n2CC2CCCO2)ccc1NC(C)=O (centres unmarked) | 6.05% |
| C/C(=N\N1CCCCCC1)c1c(O)n(C2CCCCC2)c(=O)[nH]c1=O | 8.08% |
| CC(=O)Nc1ccccc1NC(=O)COc1cccc2ccccc12 | 15.5% |
| COC(=O)c1ccc(N2CCC(C)CC2)c(N)c1 | 8.08% |
| Cc1ccc(CS(=O)(=O)Cc2ccc(C(=O)NCc3ccccn3)o2)cc1 | 4.75% |
| COC(=O)C1=C(C)N=c2s/c(=C/c3cccs3)c(=O)n2C1c1ccc(F)cc1 (centres unmarked) | 8.32% |
| OCCC1CN(C2CCN(c3ccccc3)CC2)CCN1Cc1ccc(F)c(F)c1 (centres unmarked) | -71.1% |
| O=c1cccc2n1C[C@@H]1CNC[C@H]2C1 | 0.854% |
| O=C(Cc1ccc(F)cc1)N1CCC(N2CCC(C(=O)N3CCOCC3)CC2)CC1 | 9.62% |
| C=CCN(C(=O)CNC(=O)c1cccs1)C(C(=O)NC(C)(C)C)c1ccccc1 (centres unmarked) | 7.79% |
| CCC1=NN(C(=O)c2cccnc2)C(O)(C(F)(F)F)C1 (centres unmarked) | 6.94% |
| COc1ccc(Cl)cc1NC(=O)Nc1ccccc1C(N)=O | 17.3% |
| O=C(O)c1cccc(S(=O)(=O)Nc2ccc(O)cc2Sc2nc3ccccc3s2)c1 | 18.1% |
| CCOC(=O)C1CCCN(CCCc2ccccc2)C1 (centres unmarked) | -2.62% |
| O=C(NNC(=O)c1cc(-c2ccc(Cl)c(Cl)c2)nc2ccccc12)Nc1ccccc1 | 3.86% |
